Experimental data: publication PMC6203859, “Non-catalytic signaling by pseudokinase ILK for regulating cell adhesion” (Nature Communications, 2018)

Target: full-length human ILK (C346S; C422S), subunit of the coexpressed IPP complex (human, UniProt Q13418 1-452, C346S | C422S)
Assay: SEC; purified IPP complex (coexpressed in E. coli, co-purified by Ni affinity on His6-PINCH-1) on Superose 6 10/300 GL
Conditions: both partners purified

- binding result: binds
B1: full-length human PINCH-1 (hexahistidine-tagged), subunit of the coexpressed IPP complex (natural protein)
chain: not shown
